In the supplement of paper PMC4604168 (melanoma cell lines):
Some of the results follow. Many values rest on one well or one pass, so single values are uncertain.

How the values were obtained:
Test in all cases: cell count relative to DMSO control; melanoma cells; higher = more viable cells
Settings in all cases: library dose: standard library concentration; 72 h
G361 = tested on: G361
IPC-298 = tested on: IPC-298
IST-MEL1 = tested on: IST-MEL1
LB2518-MEL = tested on: LB2518-MEL
LOXIMVI = tested on: LOXIMVI
MEL-HO = tested on: MEL-HO
MZ2-MEL = tested on: MZ2-MEL
MeWo = tested on: MeWo
RPMI7951 = tested on: RPMI7951
RVH-421 = tested on: RVH-421
SkMel28 = tested on: SkMel28
SkMel2 = tested on: SkMel2
SkMel30 = tested on: SkMel30
SkMel5 = tested on: SkMel5
UACC257 = tested on: UACC257
UACC62 = tested on: UACC62
WM115 = tested on: WM115
WM1716 = tested on: WM1716
WM3526 = tested on: WM3526
WM1745 = tested on: WM1745
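Also: cells treated in 1,536-well plates, then fixed and DAPI-stained, with nuclei counted from automated high-throughput microscope images.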

SMILES	cell count (G361) [%]	cell count (IPC-298) [%]	cell count (IST-MEL1) [%]	cell count (LB2518-MEL) [%]	cell count (LOXIMVI) [%]	cell count (MEL-HO) [%]	cell count (MZ2-MEL) [%]	cell count (MeWo) [%]	cell count (RPMI7951) [%]	cell count (RVH-421) [%]	cell count (SkMel28) [%]	cell count (SkMel2) [%]	cell count (SkMel30) [%]	cell count (SkMel5) [%]	cell count (UACC257) [%]	cell count (UACC62) [%]	cell count (WM115) [%]	cell count (WM1716) [%]	cell count (WM3526) [%]	cell count (WM1745) [%]
O=C(O)c1ccc2c(c1)nc(Nc1cccc(Cl)c1)c1ccncc12 + COc1ccc(COc2ccc(Cc3cnc(N)nc3N)cc2OC)cc1 [GW2580] (first compound 2 µM, partner dose 5 µM)	62	70.7	85.8	114	68.8	58.3	53.6	85	78.4	82.5	50.9	74.6	75.5	83.2	93.6	69.5	93.6	88.5	79.6	
O=C(O)c1ccc2c(c1)nc(Nc1cccc(Cl)c1)c1ccncc12 + Oc1cc(-c2nc(-c3ccccc3)[nH]c2-c2ccncc2)ccc1Cl [L779450] (first compound 2 µM, partner dose 1 µM)	36	64	68.8	99	69.5	50.3	72.8	84	61.3	54.8	46.9	8.57	61.8	60.1	80.9	37	62.3	74.9	43.8	
O=C(Nc1cc(C(F)(F)F)cc(C(F)(F)F)c1)c1cc(Cl)ccc1O + COc1cc2ncnc(Nc3ccc(Oc4ccccc4)cc3)c2cc1OC [SrcI1] (first compound 0.08 µM, partner dose 10 µM)	76.4	63.6	87.2	123	77.2	77.7	73.1	68	55.7	103	99.1	76.1	97.7	65.4	84.1	69.5	80.4	90.6	55.3	
O=C(O)c1ccc2c(c1)nc(Nc1cccc(Cl)c1)c1ccncc12 + O=C1NC(=O)/C(=C/c2ccc(-c3ccc(F)cc3O)o2)S1 [AS252424] (first compound 2 µM, partner dose 5 µM)	73	67.2	71.1	96.9	37.3	50	54	74	46.5	75.4	72.8	65.7	67.7	57.5	76.2	80.8	104	96.5	55.9	
O=C(O)[C@@H]1[O][Sb](=[O])([O][Sb]2(=[O])[O][C@H]([C@H](O)CO)[C@H](O)[C@H](C(=O)O)[O]2)[O][C@H]([C@H](O)CO)[C@@H]1O (stereo not given in full) [stibogluconate] + COc1ccc(-c2ccc3c(N4CCOCC4)nc(N4C[C@@H](C)O[C@@H](C)C4)nc3n2)cc1CO [KU0063794] (first compound 10 µM, partner dose 0.1 µM)	87.7	66.7	102	84.8	98.2	72.4	79.3	81.3	93.4	49.2	65.7	81.6	87.7	61.4	105	93.4	68.7	96	73.2	
O=C(O)[C@@H]1[O][Sb](=[O])([O][Sb]2(=[O])[O][C@H]([C@H](O)CO)[C@H](O)[C@H](C(=O)O)[O]2)[O][C@H]([C@H](O)CO)[C@@H]1O (stereo not given in full) [stibogluconate] + COc1cc(N2CCC(N3CCN(C)CC3)CC2)ccc1Nc1ncc(Cl)c(Nc2ccccc2S(=O)(=O)C(C)C)n1 [NVP-TAE684] (first compound 10 µM, partner dose 0.4 µM)	79.5	79.2	95	106	95.7	77.1	90.2	59.7	54.9	102	81.4	62.7	92.9	63.9	83.5	82.6	57.5	78.6	74.8	
O=C(O)[C@@H]1[O][Sb](=[O])([O][Sb]2(=[O])[O][C@H]([C@H](O)CO)[C@H](O)[C@H](C(=O)O)[O]2)[O][C@H]([C@H](O)CO)[C@@H]1O (stereo not given in full) [stibogluconate] + Cn1cc(/C=C2\C(=O)Nc3cccnc32)c2ccccc21 [GW441756] (first compound 10 µM, partner dose 2 µM)	69.9	82.8	93.3	104	95.6	87.1	76.6	90.9	73.2	115	79.2	92.3	94.4	73.1	85.8	89.2	83.7	97.7	91.8	
O=C(O)[C@@H]1[O][Sb](=[O])([O][Sb]2(=[O])[O][C@H]([C@H](O)CO)[C@H](O)[C@H](C(=O)O)[O]2)[O][C@H]([C@H](O)CO)[C@@H]1O (stereo not given in full) [stibogluconate] + c1cc(-c2cnn3cc(-c4ccc(OCCN5CCCCC5)cc4)cnc23)ccn1 [Dorsomorphin] (first compound 10 µM, partner dose 2 µM)	89.6	98.7	98.9	93.7	108	94.8	104	96.5	109	121	124	113	133	88.7	105	121	95.8	101	101	
O=C(O)c1ccc2c(c1)nc(Nc1cccc(Cl)c1)c1ccncc12 + O=C(O)C(=O)Nc1sc2c(c1C(=O)O)CCNC2 [TCS401] (first compound 2 µM, partner dose 8.33333 µM)	56.1	79	89.5	106	79.8	68.4	74.2	79.7	92	91	77.1	80.7	84.2	59.9	94.8	74.8	106	92.3	75.5	
O=C(O)c1ccc2c(c1)nc(Nc1cccc(Cl)c1)c1ccncc12 + CCc1ccc(CCOc2ccc(CC3SC(=O)NC3=O)cc2)nc1 [pioglitazone] (first compound 2 µM, partner dose 10 µM)	55.9	96	81.5	126	61.1	52.9	69.2	79	66	69.6	44.1	73.5	70.6	86.8	82	64.1	79.1	102	72.8	
O=C(Nc1cc(C(F)(F)F)cc(C(F)(F)F)c1)c1cc(Cl)ccc1O + COc1cc(N2CCC(N3CCN(C)CC3)CC2)ccc1Nc1ncc(Cl)c(Nc2ccccc2S(=O)(=O)C(C)C)n1 [NVP-TAE684] (first compound 0.08 µM, partner dose 0.4 µM)	82.1	98.5	81.6	81.5	92.5	74.1	89.4	60	70.4	92.8	67	67.9	123	60.7	79.5	72.6	76.4	81.2	86.6	
O=C(O)c1ccc2c(c1)nc(Nc1cccc(Cl)c1)c1ccncc12 + COc1cc(N2CCC(N3CCN(C)CC3)CC2)ccc1Nc1ncc(Cl)c(Nc2ccccc2S(=O)(=O)C(C)C)n1 [NVP-TAE684] (first compound 2 µM, partner dose 0.4 µM)	61.4	72.3	88.3	118	49.9	54.2	75	73.2	60	82.9	65.1	52.7	83.3	77	78.2	83.5	70.3	64.7	73	
Cc1cc(N2CCOCC2)cc2[nH]c(-c3c(NC[C@@H](O)c4cccc(Cl)c4)cc[nH]c3=O)nc12 + Oc1cc(-c2nc(-c3ccccc3)[nH]c2-c2ccncc2)ccc1Cl [L779450] (first compound 1 µM, partner dose 1 µM)	54.3	63.3	87.8		73.8	83.3		54.9	79.3	84.5	33.9	4.43	80.5	68.4	91.3	65.6	46.7	73.5	36	31.9
O=C(Nc1cc(C(F)(F)F)cc(C(F)(F)F)c1)c1cc(Cl)ccc1O + CCCCCCCCCCCC1=C(O)C(=O)C=C(O)C1=O [Embelin] (first compound 0.08 µM, partner dose 6 µM)	58.4	77.7	68.5		112	69.7		104	109	68.4	60.9		86.2	71.5	77.4	66.3	93.2	85.5	93.9	
O=C(Nc1cc(C(F)(F)F)cc(C(F)(F)F)c1)c1cc(Cl)ccc1O + CCN(CC)CCCCNc1ncc2cc(-c3cc(OC)cc(OC)c3)c(NC(=O)NC(C)(C)C)nc2n1 [PD173074] (first compound 0.08 µM, partner dose 0.5 µM)	87.2	98.7	103	110	109	94.2	98.7	104	109	110	119	102	127	80.5	100	83.3	122	104	103	
O=C(O)c1ccc2c(c1)nc(Nc1cccc(Cl)c1)c1ccncc12 + c1cc(-c2cnn3cc(-c4ccc(OCCN5CCCCC5)cc4)cnc23)ccn1 [Dorsomorphin] (first compound 2 µM, partner dose 2 µM)	49.4	72.3	83.6		86	67.5		66.4	58.6	91.3	60.5		87.8	64	82.3	77.4	52.6	79.1	69.3	
Cn1nnc2c(C(N)=O)ncn2c1=O [temozolomide] + Oc1nc(-c2ccc(C(F)(F)F)cc2)nc2c1CSCC2 [XAV939] (first compound 10 µM, partner dose 10 µM)	101	70.2	89.1		95.9	84.9		93.8	103	80.7	38.7	109	75.1	80.5	85.2	78.9	58.8	50.6	98.9	72.2
